# Hit rate of the full screen: of about 310,000 compounds, about 14,000 (4.5%) showed an effect of 50% or more. The effect is printed as a negative number. This is one part of the list.
# Molecular target: human ether-à-go-go-related gene (hERG) potassium channel (human, UniProt Q12809)
# Test: primary screen, population patch clamp on CHO cells stably expressing hERG
# 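Also: peak tail current of the secondary pulse compared with the same well before compound.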
# Sequence of human ether-à-go-go-related gene (hERG) potassium channel (Q12809 whole entry, looked up): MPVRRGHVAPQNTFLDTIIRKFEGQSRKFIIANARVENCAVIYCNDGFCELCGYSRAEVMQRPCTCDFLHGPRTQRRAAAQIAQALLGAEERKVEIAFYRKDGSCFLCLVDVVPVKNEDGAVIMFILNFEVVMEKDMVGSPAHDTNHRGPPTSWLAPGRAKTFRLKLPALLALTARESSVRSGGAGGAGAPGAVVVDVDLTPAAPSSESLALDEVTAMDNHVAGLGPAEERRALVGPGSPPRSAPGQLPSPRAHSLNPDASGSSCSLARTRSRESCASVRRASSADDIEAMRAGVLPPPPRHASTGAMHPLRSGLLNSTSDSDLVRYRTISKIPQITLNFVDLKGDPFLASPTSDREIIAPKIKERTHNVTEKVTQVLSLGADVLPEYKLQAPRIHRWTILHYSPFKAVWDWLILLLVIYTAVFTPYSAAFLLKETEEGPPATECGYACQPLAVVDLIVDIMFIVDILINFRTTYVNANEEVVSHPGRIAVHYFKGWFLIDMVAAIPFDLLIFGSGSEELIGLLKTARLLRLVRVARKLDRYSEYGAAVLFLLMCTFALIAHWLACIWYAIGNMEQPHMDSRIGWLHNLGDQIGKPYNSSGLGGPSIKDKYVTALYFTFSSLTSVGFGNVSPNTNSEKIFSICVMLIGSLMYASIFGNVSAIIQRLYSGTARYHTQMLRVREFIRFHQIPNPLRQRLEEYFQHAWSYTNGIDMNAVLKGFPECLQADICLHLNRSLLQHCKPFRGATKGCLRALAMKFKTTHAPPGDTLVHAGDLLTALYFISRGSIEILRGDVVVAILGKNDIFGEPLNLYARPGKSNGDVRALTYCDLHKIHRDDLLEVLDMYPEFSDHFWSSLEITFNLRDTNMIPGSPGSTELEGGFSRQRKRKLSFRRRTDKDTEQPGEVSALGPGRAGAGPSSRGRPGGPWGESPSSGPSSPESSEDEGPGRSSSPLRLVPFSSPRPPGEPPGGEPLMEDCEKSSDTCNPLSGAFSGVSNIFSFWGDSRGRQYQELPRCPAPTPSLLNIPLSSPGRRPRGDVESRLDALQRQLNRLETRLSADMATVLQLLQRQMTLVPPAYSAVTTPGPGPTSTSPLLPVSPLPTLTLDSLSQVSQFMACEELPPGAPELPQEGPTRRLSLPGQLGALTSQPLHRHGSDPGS
row,Structure (SMILES),"hERG current change (%, negative = inhibition) at 10uM"
1,Cc1ccc(C(=O)NCC(=O)NCCc2ccc(S(N)(=O)=O)cc2)s1,1.22%
2,CC1=NN(C(=S)Nc2ccccc2)C(c2ccccc2)C1 (stereo not shown),2.86%
3,Cc1cccc(NS(=O)(=O)c2ccc(C3CCCCC3)cc2)c1,15%
4,Cc1nn2c(NCCCN(C)C)c3c(nc2c1-c1ccccc1)CCC3,-59.4%
5,COC(=O)c1cccc(C(=O)N2CCC(CO)(Cc3ccccc3Cl)CC2)c1,-23.1%
6,COCCC(=O)N1CCCC(C(=O)c2ccc3c4c(cccc24)CC3)C1 (stereo not shown),-17.8%
7,CC(=O)C1=NOC(CNc2ncc(C(F)(F)F)cc2Cl)C1 (stereo not shown),7.33%
8,CC(=O)NNC(=O)C(O)(c1ccccc1)c1ccccc1,4.55%
9,CC(C)(C)C(=O)Nc1ccccc1C(=O)NCCC(=O)Nc1ccccc1,-4.45%
10,CC(=O)NC(c1ccco1)c1cc(Cl)c2ccccc2c1O (stereo not shown),-5.91%
11,COc1ccc(C2CC(=O)C3=C(C2)Nc2ncnn2C3c2ccccc2)cc1 (stereo not shown),-18.2%
12,Cn1c(SCc2cc([N+](=O)[O-])cc3c2OCOC3)nnc1-c1ccccn1,5%
13,NNc1nc2sc3c(c2c(=O)n1-c1ccccc1)CCCC3,-10.5%
14,O=C1C2CCC(C(O)C2)N1Cc1ccccc1 (stereo not shown),-4.82%
15,CC1=C(C(=O)Nc2ccc(C)cn2)C(c2cnn(C)c2)C2=C(CCCC2=O)N1 (stereo not shown),7.53%
16,CC(=O)c1c(C)[nH]c(C(=O)OCC(=O)NCCc2ccc(F)cc2)c1C,-16.7%
17,Cc1ccc2c(COC(=O)c3ccc(C)c(C)c3)cc(=O)oc2c1,25.7%
18,O=S(=O)(Nc1ccccc1N1CCCCC1)c1ccccc1,-4.76%
19,Cc1c(NC(=O)c2cccc(F)c2)c(=O)n(-c2ccccc2)n1C,20.5%
20,COc1ccc(NC(=O)C2CCN(c3nc(-c4ccc(OC)cc4)no3)CC2)cc1,16.1%
21,CN(C(=O)c1ccc(NC(=O)Cc2cccc(NC(=O)C3CCCN(C(=O)C4CC4)C3)c2)cc1)C1CCCC1 (stereo not shown),1.52%
22,O=C1NCCN(Cc2ccc(Cl)c(F)c2)C1CC(=O)N1CCCCO1 (stereo not shown),7.42%

row,Structure (SMILES),"hERG current change (%, negative = inhibition) at 10uM"
1,CCC(=O)N1c2ccc(S(=O)(=O)CCC(=O)NC3CCCC3)cc2CC1C (stereo not shown),-6.73%
2,CC1(c2nnc(-c3ccc(F)cc3)o2)CC(c2cccc(Cl)c2)=NO1 (stereo not shown),-11.1%
3,Nc1c(C(=O)NCCCc2ccccc2)c2nc3ccccc3nc2n1Cc1cccs1,-3.23%
4,COc1cc(NC(=O)c2ccccc2Cl)c(OC)cc1NC(=O)CN1CCCCC1,-30.1%
5,Cc1cccc(OCCCN2C(=O)C(=O)c3cc(C)ccc32)c1,-14.7%
6,COC(=O)/C=C1/N/C(=N\c2nc(C)cc(C)n2)N(c2cccc(C)c2)C1=O,-1.75%
7,COC(=O)Nc1nnc(COc2cccc(C)c2)s1,-5.23%
8,COc1ccccc1N1CCN(CC(O)COc2ccc(C)cc2C)CC1.Cl (stereo not shown),-73.1%
9,CCOC(=O)Cn1c(-c2cccnc2Cl)nc2cc(Cl)c(Cl)cc21,-16.6%
10,Cc1ccc(NC(=S)N(N)CCO)cc1,13.5%
11,O=C1Nc2ccccc2CCC1Sc1nnc(-c2ccc(Cl)cc2)s1 (stereo not shown),-1.68%
12,CCN1CCN(S(=O)(=O)c2ccc(OC)cc2)CC1,6.86%
13,Cc1cccc(C)c1NC(=O)CSCCO,20%
14,CC(C)c1ccc(C(C)NC(=S)NC2CCCCC2)cc1 (stereo not shown),8.11%
15,Cc1ccc(CC(=O)Nc2ccccc2-c2ccccc2)cc1C,-2.7%
16,CCOc1ccc(/C=N/NC(=O)C2CCCC2)c(OCC)c1,-24.2%
17,N#Cc1cnc2c(-c3ccccc3)c(-c3ccccc3)nn2c1N,-1.89%
18,COc1ccccc1Oc1ccc2c(c1)C(=O)N(c1cccc(O)c1)C2=O,21.8%
19,CC(C)c1ccc2c(c1)c(SC(C)(C)C)c(CC(C)(C)C(=O)[O-])n2Cc1ccc(Cl)cc1.[Na+],-8.58%
20,O=C(c1ccc(Cl)cc1)N1CCCC(c2ccccc2)=N1,-4.76%
21,CCN(CC)S(=O)(=O)c1cccc(-c2nnc(SCC#N)n2Cc2ccccc2)c1,-25.5%
22,CCC1(c2ccccc2)NC(=O)N(CC(=O)NCc2ccccc2OC)C1=O (stereo not shown),18.1%

row,Structure (SMILES),"hERG current change (%, negative = inhibition) at 10uM"
1,O=C(NC1CCCCC1)C(c1ccccc1)N(C(=O)c1cccs1)c1ccc2c(c1)OCO2 (stereo not shown),5.99%
2,CCCCOc1ccccc1C1NC(=O)NC(C)=C1C(=O)OCCOC (stereo not shown),-5.16%
3,O=C1c2ccccc2C(Nc2ccc(-c3nc4ccccc4[nH]3)cc2)N1Cc1ccco1 (stereo not shown),-33.3%
4,CCCc1c(O)nc(SCC(=O)N2CCCCC2)[nH]c1=O,24.6%
5,Cn1c[n+](C)cc1/C=N/O.[I-],24.1%
6,Cc1ccc(S(=O)(=O)Nc2cc(C(=O)NCCN(C)C)ccc2N2CCCC2)cc1,-6.83%
7,CC(C)Cc1nnc(NC(=O)CCC(=O)NC2CCCCCCC2)s1,15.1%
8,CCC/C(=N\NC(=O)c1cccc(C)c1)c1ccccc1,2.17%
9,Cn1c(=O)c2c(nc(N/N=C/c3ccco3)n2C)n(C)c1=O,-3.97%
10,CC(NC(=O)c1cc(-c2ccc3c(c2)OCO3)nc2ccccc12)C(C)(C)C.Cl (stereo not shown),-19.4%
11,CC12CCC(C(=O)N(CSC(=S)N/N=C\c3ccccc3O)C1=O)C2(C)C (stereo not shown),10.8%
12,Cc1oc(-c2ccc(Cl)cc2)nc1CN1CCCC(C(=O)N2CCOCC2)C1 (stereo not shown),-53.8%
13,O=C(COC(=O)c1cccc(N2C(=O)c3ccccc3C2=O)c1)Nc1ccccc1,11.8%
14,CC1(C(=O)O)Oc2cccnc2NC1=O (stereo not shown),13.9%
15,CNC(=O)Oc1ccc2c(c1)[C@]1(C)CCN(C)[C@@H]1N2C.O=C(O)c1ccccc1O,10.7%
16,COc1cc(NC(=O)COC(=O)CNC(=O)c2cc(C)cc(C)c2)c(C)cc1[N+](=O)[O-],-17.3%
17,COc1ccc(NC(=O)CN(C)C(=O)CNC(=O)c2ccc3c(c2)OCO3)cc1,-3.88%
18,Cc1ccc(C(=O)N2CCCC(c3ccc(Cl)cc3)=N2)cc1,5.68%
19,COC(=O)c1cc(-c2cccs2)nn1-c1ccccc1,-11.7%
20,COc1ccc(C(CNc2ccc(S(C)(=O)=O)cc2[N+](=O)[O-])N(C)C)cc1OC (stereo not shown),-27%
21,N#CCCn1cc(C(=O)Nc2ccc(C(=O)O)cc2)c(-c2cccs2)n1,21%
22,Cc1ccc(C2=NOC3(CC(=O)N(c4ccccc4)C3=O)C2)cc1 (stereo not shown),21.4%

row,Structure (SMILES),"hERG current change (%, negative = inhibition) at 10uM"
1,COc1ccc(C(=O)Nc2cc(OC)cc3cccnc23)cc1,17.1%
2,CCOc1ccccc1NC(=O)COC(=O)C1CC(=O)N(c2c(C)cccc2C)C1 (stereo not shown),-7.94%
3,Cc1ccc(N(CC(=O)N2CC(=O)Nc3ccccc32)S(=O)(=O)c2ccc3c(c2)OCCO3)cc1,-2.7%
4,Cl.c1ccc(CN2CCC3(CCCc4ccccc43)CC2)cc1,-69.6%
5,Cn1c(OCc2cccnc2)nc2c1c(=O)n(Cc1ccc(Cl)cc1)c(=O)n2C,-51.1%
6,CCOC(=O)N1CCC(=NNc2nc(C)cc(=O)[nH]2)CC1,38.3%
7,Cc1ccc(Nc2nc(Nc3ccc(C)cc3)nc(SC3=NCCS3)n2)cc1,-6.64%
8,COc1ccc(C(=O)N(Cc2ccco2)C(C(=O)NC2CCCC2)c2ccc(O)cc2)cc1OC (stereo not shown),-10.9%
9,CCn1nc(C(=O)NCCc2ccc(S(N)(=O)=O)cc2)c2ccccc2c1=O,-7.2%
10,CCOc1ccc2nc(NS(=O)(=O)Cc3ccccc3)sc2c1,9.15%
11,Cc1ccc(-c2nc(CS(=O)CC(=O)NC3CCCCC3)c(C)o2)cc1 (stereo not shown),-0.178%
12,O=C(CSc1nnc(C2CC2)n1Cc1ccccc1)NCc1ccccc1,-9.9%
13,CCOC(=O)c1c(C)n(C)c2ccc(OC)c(NC(=O)CN3CCN(C4CCCCC4)CC3)c12,-16.8%
14,CCOc1ccc(NC(=O)CN(C)C(=O)c2ccccc2-n2cnnn2)cc1OCC,14.4%
15,COCCOC(=O)c1c(NC(=O)COC(=O)Cc2cccc(OC)c2)sc(C(N)=O)c1C,13.8%
16,O=C(/C=C/c1ccccc1)Nn1cnnc1,3.03%
17,COc1ccccc1N1C(=O)CC(Nc2ccc(N3CCOCC3)cc2)C1=O (stereo not shown),18.6%
18,COC(=O)c1sccc1NC(=O)Nc1ccccc1F,13.4%
19,COC(=O)/C(=N\Nc1ccc(Cl)cc1)Sc1nnc(-c2ccc(OC)cc2)n1C,-0.174%
20,CCOC(=O)C(CCCCOc1ccc([N+](=O)[O-])cc1)C(=O)OCC,-54.8%
21,Cc1cc(C)n(-c2ncnc3sc(C)c(C)c23)n1,-1.44%
22,O=C(Nc1ccc(F)cc1)NC1(C(=O)NCc2ccc3c(c2)OCO3)CCCCC1,10.7%
